From PubChem BioAssay AID1030 (National Center for Advancing Translational Sciences (NCATS), 2008)
Among all 220,000 compounds or so, about 16,000 (7.3%) were called active. The shares of active, inactive and inconclusive entries below differ from those in the screen. Calls come from the whole dose curve; as a rule, active = well fitted inhibition curve with a large enough effect (not every such curve was filed as active); inconclusive = small, poorly fitted or top-dose-only effect, or another doubt; inactive = no such curve, though single readings can be large or run the other way. Potencies of inconclusive entries are doubtful fits and often do not repeat.

The compounds below were run against Aldehyde dehydrogenase 1A1 (Homo sapiens) (UniProt P00352) (assay: qHTS Assay for Inhibitors of Aldehyde Dehydrogenase 1 (ALDH1A1)). Settings: Purified ALDH1A1, NADH fluorescence, propionaldehyde substrate; series mostly up to 75.3 µM; activity, negative = inhibition: at the top concentration.
Potency is the fitted concentration of half-maximal effect; tags give direction and shape of the fitted curve.
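Throughout, for activity, negative = inhibition: plate controls were no enzyme wells and a reference inhibitor.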

UniProt P00352, sequence (P00352 whole entry, looked up): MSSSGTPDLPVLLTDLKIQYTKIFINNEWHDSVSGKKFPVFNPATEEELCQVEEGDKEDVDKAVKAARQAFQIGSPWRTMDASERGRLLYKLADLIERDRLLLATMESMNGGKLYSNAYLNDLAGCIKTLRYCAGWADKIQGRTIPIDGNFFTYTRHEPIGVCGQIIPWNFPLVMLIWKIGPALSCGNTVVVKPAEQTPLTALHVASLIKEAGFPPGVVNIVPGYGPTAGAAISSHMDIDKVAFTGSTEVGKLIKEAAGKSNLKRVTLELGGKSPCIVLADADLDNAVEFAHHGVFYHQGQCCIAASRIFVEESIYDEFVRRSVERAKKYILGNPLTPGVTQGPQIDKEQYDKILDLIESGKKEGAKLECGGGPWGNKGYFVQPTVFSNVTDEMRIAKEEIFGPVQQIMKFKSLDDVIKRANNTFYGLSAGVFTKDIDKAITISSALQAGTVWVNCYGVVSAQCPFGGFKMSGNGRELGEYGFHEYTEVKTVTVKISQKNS

Potency, inconclusive:
COc1ccc(S(=O)(=O)Nc2ccccc2C(=O)O)cc1 39.8 µM [inhibitor, single point]
COC(=O)[C@@]1(Cc2ccc(F)cc2)[C@@H]2[C@@H](CC(=O)[C@H]2CC(=O)C(=O)N2CCCC2)CN1C(=O)c1ccccc1 39.8 µM [inhibitor, single point]
O=C(Nc1ccccc1N1CCOCC1)c1ccc2ccccc2n1 44.7 µM [inhibitor, single point]
CC1CCCC(NC(=S)Nc2cccc(S(=O)(=O)N(C)C)c2)C1C (stereo unspecified) 17.8 µM [inhibitor, partial curve]
Cc1ccc(F)c(NC(=O)/C(C#N)=C(\O)c2ccc(C(C)(C)C)cc2)c1 39.8 µM [inhibitor, single point]
CN(C)c1ccc(/C=N/NC(=O)Cn2nnc3ccccc32)cc1 14.1 µM [inhibitor, partial curve]
CC(=O)c1ccc(N2CCN(C(=S)NCCCN(C)C)CC2)cc1 39.8 µM [inhibitor, single point]
C/C=C(/C)C(=O)O[C@@H]1[C@H](OC(C)=O)c2c(ccc3ccc(=O)oc23)OC1(C)C 8.91 µM [inhibitor, single point]
c1ccc(-c2cc(-c3nn4c(-c5ccco5)nnc4s3)c3ccccc3n2)cc1 39.8 µM [inhibitor, single point]
O=C(CSc1nnc(-c2ccc(S(=O)(=O)N3CCCC3)cc2)n1CC1CCCO1)NC1CC1 (stereo unspecified) 14.1 µM [inhibitor, partial curve]
C=CCn1c(COc2ccccc2)nnc1SCC(=O)N/N=C/c1ccc(C)cc1 37.7 µM [inhibitor, single point]
Cc1cc(NC(=O)CN(C)S(=O)(=O)c2cccc(Cl)c2)no1 37.7 µM [inhibitor, single point]
C[n+]1ccc(/C=C/c2ccc3ccccc3c2)cc1 28.2 µM [inhibitor, partial curve]
CC1=C(/C=C/C(=C/C=C/C(C)=C/C(=O)O)c2ccc(C)cc2)C(C)(C)CCC1 35.5 µM [inhibitor, single point]
COc1ccc2c(C)c(C(=O)O)oc2c1 39.8 µM [inhibitor, single point]
O=C1C2CCCN2c2ccc(S(=O)(=O)N3CCOCC3)cc2N1Cc1ccccc1F (stereo unspecified) 1 µM [inhibitor, full curve]
N#Cc1c(Cl)nsc1NC(=O)c1ccccc1 25.1 µM [inhibitor, single point]
O=C1C=C(NCc2ccc(Cl)c(Cl)c2)CC1 20 µM [inhibitor, single point]
CCCC1=[N+](CC(C)=O)CCn2c(C)ccc21 35.5 µM [inhibitor, single point]
COc1ccc(C(=O)NCc2nnc(SCC(=O)N3CCCCC3)o2)cc1 2.24 µM [inhibitor, full curve]
Oc1ccc(-c2csc(NCc3ccco3)n2)cc1 39.8 µM [inhibitor, single point]
CCOc1ccc(NC(=O)CN(C)Cc2cc(=O)n3c(-c4ccccc4)csc3n2)cc1OCC 44.7 µM [inhibitor, single point]
COc1ccccc1/C=N/NC(=O)C1=NNC(c2ccccc2)(c2ccccc2)C1 39.8 µM [inhibitor, single point]
CCCCn1c(SCC(=O)Nc2cc(NC(=O)c3ccco3)ccc2C)nc2ccccc2c1=O 39.8 µM [inhibitor, single point]
O=C(COc1c(F)c(F)c(C(F)(F)F)c(F)c1F)Nc1ccc(N2CCOCC2)c(Cl)c1 39.8 µM [inhibitor, single point]
CC1(C)Oc2ccc3ccc(=O)oc3c2CC1O (stereo unspecified) 31.6 µM [inhibitor, partial curve]
COc1ccc(OC)c(Nc2nc(C3CC3)nc3c2nnn3Cc2ccccc2)c1 28.2 µM [inhibitor, partial curve]
COc1ccc2[nH]c(=O)c(CN(Cc3ccco3)C(=O)c3ccccc3)cc2c1 28.2 µM [inhibitor, partial curve]
Cc1c(C)n(C(=O)CN2CCN(c3ccccc3)CC2)c2ccccc12 23.8 µM [inhibitor, single point]
O=C(NC1=NCCS1)c1cc(-c2cccc(Br)c2)nc2ccccc12 22.4 µM [inhibitor, single point]
CCCc1c(C)[nH]c2ccc(NC(C)=O)cc2c1=O 3.98 µM [inhibitor, full curve]
CC(CN(C)C)C(C)(O)Cc1ccc(Cl)cc1 (stereo unspecified) 0.15 µM [inhibitor, full curve, poor fit]
Cc1cccc(NS(=O)(=O)Cc2ccccc2)n1 35.5 µM [inhibitor, single point]
COc1cc(CC(NC(C)=O)C(=O)NC2CCN(C(=O)c3cc(OC)c(OC)c(OC)c3)CC2)cc(OC)c1 (stereo unspecified) 2.82 µM [inhibitor, partial curve]
CCC(=O)c1ccc(N2CCN(C(=O)c3ccccc3Br)CC2)c(F)c1 31.6 µM [inhibitor, partial curve]
O=c1cc(-c2ccccc2)oc2c1ccc1ccccc12 31.6 µM [inhibitor, partial curve]
CC1C(=O)C(C)C(c2cccs2)NC1c1cccs1 (stereo unspecified) 15.8 µM [inhibitor, partial curve]
Cc1ccc(-c2nc(N=Nc3ccc(O)cc3)n[nH]2)cc1 28.2 µM [inhibitor, single point]
O=C(Cc1ccccc1)c1c[nH]c(C(=O)NC2CCCC2)c1 7.94 µM [inhibitor, full curve]

Potency, active:
CC1CC(=O)C2=C(C1)OC(N)=C(C#N)C2c1coc2ccccc2c1=O (stereo unspecified) 17.8 µM
CCSC1=C(C#N)C(=O)n2c1cc1c2CCCC1 4.47 µM
S=C(NCc1ccc2c(c1)OCO2)NCc1ccco1 20 µM
COCCNC(C(=O)Nc1ccc([N+](=O)[O-])cc1Br)c1ccccc1 (stereo unspecified) 12.6 µM
Cc1c(C(=O)N2CCN(Cc3ccccc3)CC2)sc2ncnc(N3CCOCC3)c12 25.1 µM
COCCNCCCCOc1ccc(C)cc1[N+](=O)[O-] 2.82 µM
CCn1c(-c2ccccc2)c[nH]c1=S 28.2 µM
Cc1nn(CCc2n[nH]c(=S)n2C2CCCCC2)c(C)c1Br 20 µM
CCCCCCCNC(=O)c1ccc(N2CCC3(CC2)OCCO3)c([N+](=O)[O-])c1 25.1 µM
CCOC(=O)c1cc2c(nc1NC(=S)Nc1ccccc1)CC(C)(C)OC2 14.1 µM
COc1ccc(C)cc1NC(=O)C(NCC1CCCO1)c1ccccc1 (stereo unspecified) 17.8 µM
COc1ccc(C(C)=O)cc1COC(=O)c1cnc(Cl)c(Cl)c1 1.41 µM
Cc1ccc(N=Cc2sc(O)c3ccccc23)c(C)c1 12.6 µM
CNCc1ccccc1Sc1cc(O)ccc1O 0.794 µM
N#CC1=C2SCN(c3ccccc3)CN2C(=O)CC1c1c(Cl)cccc1Cl (stereo unspecified) 3.16 µM
COc1ccc(N2CSC3=C(C#N)C(c4cc(OC)c(OC)cc4OC)CC(=O)N3C2)c(OC)c1 (stereo unspecified) 8.91 µM

activity, negative = inhibition, inactive:
Cc1c(C(=O)NC2=NCCS2)oc2ccccc12 7.33%
COc1ccc(-c2cc(C(F)(F)F)n3ncc(C(=O)NCC4CCCO4)c3n2)cc1 (stereo unspecified) -3.36%
O=C(O)c1ccccc1-c1ccccc1C(=O)NCc1ccco1 5.34%
O=C(O)CCC(=O)N(Cc1cccs1)Cc1cccs1 -4.78%
COc1cccc(NC(=O)COC(=O)CCOc2ccccc2OC)c1 5.12%
Cc1ccc(Cc2nc(-c3cccnc3)no2)cc1 -4.63%
COc1cccc(C(=O)NCC(=O)N/N=C/c2cccs2)c1 1.97%
COC(=O)C1=C(C)NC(=O)/C1=C\c1cc(C)n(-c2cc(C)cc(C)c2)c1C -12.8%
C/C=C1/NN(CCCN2CCN(c3cccc(Cl)c3)CC2)C(=O)N1CCOc1ccccc1 -3.23%
C/C=C/c1ccc(OCCCCOc2c(OC)cccc2OC)c(OC)c1 -7.71%
CCOC(=O)c1ccc(N=Nc2c(C)c(C#N)c(O)[nH]c2=O)cc1 -4.85%
CC(C)N(C(=O)NC(=O)Nc1ccccn1)S(C)(=O)=O -2.3%
N=c1n(Cc2ccccc2)c2ccccc2n1CC(O)COc1ccc(Cl)cc1Cl (stereo unspecified) 0.43%
Cc1c(C(=O)Nc2ccc3c(c2)OCO3)sc2ncn(CC(=O)N3CC(C)CC(C)C3)c(=O)c12 (stereo unspecified) 5.41%
CC(C)Nc1nc(C#N)nc(NC(C)C)n1 -0.25%
CCn1cc(S(=O)(=O)N2CCN(Cc3ccc(F)cc3)CC2)cn1 14.9%
CCOC(=O)c1[nH]c(C)c(/C=N/O)c1C 3.3%
c1ccc(OCc2nn3c(-c4ccncc4)nnc3s2)cc1 8.41%
CC(C)CCCC(C)C1CCC2C3CC=C4CC(=O)CC[C@@]4(C)C3CC[C@@]12C (stereo partly specified) -3.09%
COc1cccc(/C(O)=C2/C(=O)C(=O)N(Cc3cccnc3)C2c2ccco2)c1 (stereo unspecified) 0.17%
COc1ccc2[nH]cc(CCNc3cc(-c4ccccc4Cl)ncn3)c2c1 -15.3%
